The whole screen tested about 310,000 compounds, of which about 14,000 (4.5%) showed an effect of 50% or more. The effect is printed as a negative number. Some of the results follow.
The compounds below were run against human ether-à-go-go-related gene (hERG) potassium channel (human, UniProt Q12809) (assay: primary screen, population patch clamp on CHO cells stably expressing hERG).
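Note: peak tail current of the secondary pulse compared with the same well before compound.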

Chain of human ether-à-go-go-related gene (hERG) potassium channel (Q12809 whole entry, looked up): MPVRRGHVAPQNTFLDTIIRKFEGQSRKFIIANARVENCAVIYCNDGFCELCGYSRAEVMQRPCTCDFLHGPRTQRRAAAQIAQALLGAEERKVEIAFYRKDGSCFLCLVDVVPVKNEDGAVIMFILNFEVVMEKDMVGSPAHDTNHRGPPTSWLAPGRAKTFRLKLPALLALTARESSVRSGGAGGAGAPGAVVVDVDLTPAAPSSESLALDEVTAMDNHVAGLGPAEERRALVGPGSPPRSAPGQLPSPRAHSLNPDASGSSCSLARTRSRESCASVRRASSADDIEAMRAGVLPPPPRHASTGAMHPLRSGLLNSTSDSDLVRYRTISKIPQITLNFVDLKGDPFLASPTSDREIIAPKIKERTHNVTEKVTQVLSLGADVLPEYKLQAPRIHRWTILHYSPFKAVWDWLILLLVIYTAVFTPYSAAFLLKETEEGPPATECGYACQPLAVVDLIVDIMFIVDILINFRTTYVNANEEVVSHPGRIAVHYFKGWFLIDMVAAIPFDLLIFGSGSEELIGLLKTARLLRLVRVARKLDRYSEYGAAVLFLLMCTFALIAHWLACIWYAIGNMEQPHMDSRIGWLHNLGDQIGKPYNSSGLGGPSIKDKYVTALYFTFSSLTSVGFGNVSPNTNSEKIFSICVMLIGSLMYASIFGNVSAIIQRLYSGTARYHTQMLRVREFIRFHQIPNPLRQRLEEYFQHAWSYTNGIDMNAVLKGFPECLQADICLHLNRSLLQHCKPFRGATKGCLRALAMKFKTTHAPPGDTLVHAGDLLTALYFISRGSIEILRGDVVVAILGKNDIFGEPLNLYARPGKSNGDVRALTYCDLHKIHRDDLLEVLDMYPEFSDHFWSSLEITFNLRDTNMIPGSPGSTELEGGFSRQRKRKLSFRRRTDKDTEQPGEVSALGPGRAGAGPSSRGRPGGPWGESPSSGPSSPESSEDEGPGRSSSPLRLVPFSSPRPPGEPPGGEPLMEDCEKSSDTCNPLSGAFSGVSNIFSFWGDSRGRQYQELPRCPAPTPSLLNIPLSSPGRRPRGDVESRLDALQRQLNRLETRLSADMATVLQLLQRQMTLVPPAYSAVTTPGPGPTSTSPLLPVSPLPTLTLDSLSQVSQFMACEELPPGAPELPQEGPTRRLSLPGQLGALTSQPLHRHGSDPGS

Row | Structure (SMILES) | hERG current change (%, negative = inhibition) at 10uM [%]
1 | CC1=NN(c2ccccc2)C(=O)C1/C=C1/C(=O)NC(=O)N(c2cc(C)cc(C)c2)C1=O (stereo not shown) | 4.91
2 | CCOc1ccc(NC(=O)CC(NC(C)=O)c2ccccc2)cc1S(=O)(=O)N1CCCC1 (stereo not shown) | 1.19
3 | Cc1cc(NC(=O)C2CC(=O)N(c3ccccc3)C2)no1 (stereo not shown) | 24.4
4 | O/N=C/c1cc(Br)ccc1OCc1ccc(F)cc1 | 2.93
5 | Fc1ccc(CNC(=S)NCc2ccc(F)cc2)cc1 | -18
6 | COCCOC(=O)C1=C(C)NC(=O)NC1c1cccc(F)c1 (stereo not shown) | 10.8
7 | Cc1cc(C)n2ncc(C(=O)Nc3ccc4c(c3)OCO4)c2n1 | 19.6
8 | Nc1ccc(C(=O)OCC(=O)N2CCOCC2)cc1[N+](=O)[O-] | 9.29
9 | CCOC(=O)N1CCC(NC(=O)CCc2nc(C3=CCN(C)CC3)no2)CC1 | -3.37
10 | CCOC(=O)CP(=O)(c1ccccc1)c1ccccc1 | 5
11 | Cc1ccc(NC(=O)CN(C)C(=O)COc2ccc(C(=O)c3ccc(F)cc3)cc2)cc1 | -7.66
12 | CCCn1c(CCC(=O)O)ccc1-c1ccccc1 | 24.2
13 | O=C(CCS(=O)(=O)c1cccc2nonc12)Nc1cccc2c1CCCC2 | 4.5
14 | Cc1cc(C)nc(NS(=O)(=O)c2ccc(NC(=O)C3CC3)cc2)n1 | 24
15 | CC(C(=O)Nc1c2c(cc3c1CCC3)CCC2)N1CCCC1.Cl.O (stereo not shown) | -10.7
16 | COc1cccc(C(=O)NCC(C)(C)SCc2ccc(F)cc2)c1 | -28.2
17 | O=C(NNC(=O)c1ccccc1-n1cccc1)c1ccc(Cl)nc1 | 14
18 | CC1(C)Cc2c(sc(NC(=O)C(=O)NCC3CCCO3)c2C(N)=O)CO1 (stereo not shown) | 9.48
19 | Cc1ccc(-c2ccc(=O)n(Cc3ccc(F)cc3)n2)cc1 | 3.67
20 | O=C(CNC(=O)c1cccc(F)c1)N/N=C/c1cc(Br)ccc1OCc1ccccc1 | 0.915
21 | CC(=O)C1C(c2ccncc2)NC(=O)NC1(O)C(F)(F)F (stereo not shown) | 1.55
22 | CCCCN(C)C(=O)Cc1c(OC)ccc2cc(Br)ccc12 | -19.6

Row | Structure (SMILES) | hERG current change (%, negative = inhibition) at 10uM [%]
23 | CC(C)NC(=S)Nc1c(N)[nH]c(=O)[nH]c1=O | 17
24 | N#Cc1ccc(OCC(O)CN2CCN(c3ncc(C(F)(F)F)cc3Cl)CC2)cc1 (stereo not shown) | -74.6
25 | CN(C)S(=O)(=O)c1ccc(N2CCCC2)c(C(=O)Nc2nc(-c3ccc(F)cc3)cs2)c1 | 7.27
26 | Cc1[nH]c2ccccc2c1C(=O)C(C)OC(=O)c1ccc(Cl)nc1 (stereo not shown) | -12.9
27 | CCN(CC(=O)NCc1cccs1)c1ccc(S(=O)(=O)N2CCCC2)cn1 | -27.3
28 | Cc1ccc(Cn2nnc3c(=O)[nH]c(C4CCCN(C(=O)Nc5ccc(F)cc5F)C4)nc32)cc1 (stereo not shown) | -27.4
29 | Cc1noc2ncnc(Oc3ccccc3)c12 | 7.32
30 | COc1ccc(C(=O)NCCS(=O)(=O)NCc2cccnc2)cc1 | 2.97
31 | C=CCn1cnc2c(nnn2-c2cc(C)cc(C)c2)c1=O | -10.4
32 | CCOC(=O)c1c(O)c(O)c(C(=O)OCC)n1-c1ccccc1 | 7.92
33 | CCOc1ccc(C2/C(=C(\O)c3ccc4c(c3)OCCO4)C(=O)C(=O)N2CCN2CCOCC2)cc1OCC (stereo not shown) | 2.29
34 | CN(C)S(=O)(=O)N1CCN(C(=O)c2ccccc2)CC1 | 8.25
35 | CC1(C)CC(=O)C=C(Nc2ccc(C(=O)O)c(O)c2)C1 | 15.2
36 | O=C(Nc1ccc(Cc2ccncc2)cc1)C1CCC(N2C(=O)C3CCCCC3C2=O)CC1 (stereo not shown) | 10.8
37 | Cc1cc(S(=O)(=O)Nc2ccc(C(=O)NCc3cccnc3)cc2)ccc1F | -12
38 | CC(C(=O)NCC1CCCCC1)N1CCN(S(=O)(=O)c2ccccc2F)CC1 (stereo not shown) | -0.194
39 | CCN(CC)c1ccc2c(c1)CCCN2.Cl | 7.87
40 | O=C(COc1ccccc1)N1CCN=C1SCc1cccc(F)c1 | -0.69
41 | CC(C)Cc1nc2sc3c(=O)[nH]cnc3c2c2c1CCC2 | 2.32
42 | Clc1ccc(Cn2nc(-c3ccccc3)nc2-c2ccccc2)cc1 | -8.99
43 | O=C(c1ccccc1)C1CCN(CC(=O)N2CCN(c3ccccc3)CC2)CC1 | -14.9
44 | Cc1cccc(NS(=O)(=O)c2cccc(C(=O)N3CCC3)c2)c1 | 6.44

Row | Structure (SMILES) | hERG current change (%, negative = inhibition) at 10uM [%]
45 | O=C(NCc1ccccc1)C1CCC(=O)N(CCN2CCOCC2)C1 (stereo not shown) | 21.1
46 | CN1CCN(c2ccc([N+](=O)[O-])c(Sc3nc4ccccc4[nH]3)c2)CC1 | -19.7
47 | C(=C\c1ccccc1)/C=N/Nc1ccc2nncn2n1 | -19.7
48 | COc1ccc(-n2cnc3sccc3c2=O)cc1 | 13.3
49 | Cc1ccc(SCC(=O)Nc2ccc(N3CCN(C)CC3)c(F)c2)cc1 | -64.4
50 | N#Cc1ccc(C(=O)OCC(=O)N2CCCC2)cc1 | 29.2
51 | CNc1nc(N)c([N+](=O)[O-])c(NCC2CCCO2)n1 (stereo not shown) | 11.3
52 | CN(NC1CC(=O)N(c2ccccc2)C1=O)c1ccccc1 (stereo not shown) | 3.71
53 | CC(NC(=O)Nc1ccc2c(c1)OCO2)c1ccncc1 (stereo not shown) | -12.4
54 | Cc1ccc(NS(=O)(=O)c2ccc(C(=O)N3CC(C)CC(C)C3)cc2)cc1 (stereo not shown) | -58.7
55 | CN(CC(=O)Nc1cccnc1)S(=O)(=O)c1cc(Cl)ccc1Cl | -29.4
56 | CCCNC(=O)c1onc(CSc2ccc(Cl)cc2)c1C(=O)NCCOC | -19.7
57 | Cc1nccc(-c2sc(-c3cccs3)nc2C)n1 | 0.0313
58 | Cc1ccc(/C=C/C(=O)NC2=NCCS2)cc1 | 0.402
59 | Cc1nn(C)cc1/C=N/NC(=O)C(C)(C)Oc1ccc(Cl)cc1 | 0.613
60 | O=C(O)c1cc(Cl)c2c(c1)[C@@H]1C=CC[C@@H]1[C@H](c1ccc(S(=O)(=O)N3CCOCC3)cc1)N2 | -0.659
61 | CCOC(=O)C(NC(=O)CC)(Nc1ccc(S(=O)(=O)Nc2cc(C)on2)cc1)C(F)(F)F (stereo not shown) | 23.6
62 | COc1ccc(/C=C2\SC(=S)N(CCC(=O)Nc3ccccc3C(=O)O)C2=O)cc1 | 7.79
63 | Cc1cc(C)nc(NS(=O)(=O)c2ccc(NC(=O)c3cc(=O)c4ccccc4o3)cc2)n1 | 18.8
64 | COc1ccccc1NC(=O)CSc1nc(=O)n(CCN(C)C)c2c1CCCC2 | -40.4
65 | CCn1cc(/C=C(\NC(=O)c2ccccc2F)C(=O)N2CCOCC2)c2ccccc21 | -4.61
66 | CN1CCN(CC(=O)Nc2ccc(OC(F)(F)F)cc2)CC1.Cl | -65.1

Row | Structure (SMILES) | hERG current change (%, negative = inhibition) at 10uM [%]
67 | CCN(CC)C(=O)CN(C#N)c1nc(C)cc(C)n1 | 19.4
68 | COc1ccc(-c2[nH]ncc2CN2CCC(OCc3ccccn3)CC2)c(F)c1 | -31.1
69 | CN1CC(c2ccccc2)C2(COc3ccccc3C2=O)C12C(=O)Nc1ccccc12 (stereo not shown) | -3.09
70 | CCSc1nnc(NC(=O)CSc2nc3c(c(=O)n2-c2ccccc2OC)SCC3)s1 | -26.2
71 | C=CCSc1nnc(-c2cc(C(C)(C)C)nn2Cc2ccc(F)cc2)n1C | -3.17
72 | Nc1c(C(=O)N2CCCC2)sc2nc(-c3ccccc3)ccc12 | -70.7
73 | Nc1c(C(=O)C2CC2)sc2nc(-c3ccccc3)cc(C(F)(F)F)c12 | 18.8
74 | CCOC(=O)C1CCN(C(=O)COC(=O)C2CCN(S(=O)(=O)c3ccc4c(c3)OCCO4)CC2)CC1 | -24.8
75 | CCCCCCSc1cccc(-c2nc3cc(C)ccn3c2NC2CCCCC2)c1.O=C(O)C(F)(F)F | 0.642
76 | CN(C(=O)c1ccnn1C)C1CCCN(Cc2ccccc2F)C1 (stereo not shown) | 15.2
77 | Cc1cc(-n2c(C)cc(C(=O)COc3ccc([N+](=O)[O-])cc3)c2C)no1 | -20.5
78 | Cn1c2ccccc2c2cc(C(=O)N3CCN(CCO)CC3)sc21 | -1.19
79 | CCOc1ccc(NC(=O)CCS(=O)(=O)c2ccc3c(c2)CCCN3C(=O)CC)cc1 | -21.4
80 | O=C(COc1coc(CN2CCc3ccccc3C2)cc1=O)Nc1ccc(F)cc1 | 3.91
81 | CC(C)CCN1CCN(Cc2nc(-c3ccccc3)cs2)CC1CCO (stereo not shown) | -62.7
82 | COc1ccc(/C(O)=C(\C#N)c2nc3ccccc3n2C)cc1OC | 9.59
83 | CCOC(=O)N1CCC(c2cc(=O)n3[nH]cc(C(=O)OC)c3n2)CC1 | 9.34
84 | O=C(CN1CCOCC1)Nc1ccccc1Sc1ccc(Cl)cc1 | -44.1
85 | COc1ccc(CCN(C)C(=O)CCCN2C(=O)c3cccc4cccc(c34)C2=O)cc1OC | -35.5
86 | Cc1nc2ccc(NC(=O)NCCO)cc2s1 | 5.11
87 | O=C(CSC1=NCCS1)NC(NC(=O)CSC1=NCCS1)c1ccccc1 | 18.6
88 | COc1ccc(OC)c(C(=O)NC(CC(N)=O)c2ccc(N3CCN(c4ccc(F)cc4)CC3)c([N+](=O)[O-])c2)c1 (stereo not shown) | 9.75

From paper PMC4336329 (PLoS ONE, 2015)
